# From the supplement of paper PMC6135742
# Where a name gives a salt, the structure may show the parent alone. ± gives the standard deviation of the averaged measurements. Whole data set: some 2,600 compounds, median “MBP+ mature oligodendrocyte number relative to DMSO vehicle control” near -0.34, cut for the highest 2% near 13. Some of the results follow.
# Tested on: jimpy (Plp1 jimpy) mouse iPSC-derived oligodendrocyte progenitor cells
# Test: MBP+ mature oligodendrocyte number relative to DMSO vehicle control (SDs above negative control mean); higher = more surviving jimpy oligodendrocytes (rescue)
# Conditions: 10 µM; 3 days
# Experimental: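 Primary phenotypic screen of >3,000 bioactive compounds (Selleck L1700 and Sigma LO1280 libraries) at a single dose of 10 µM. Compounds were added to jimpy (Plp1 mutant) mouse iPSC-derived OPCs at the start of thyroid hormone-induced oligodendrocyte differentiation, one well per compound in 384-well plates. After 3 days cells were stained for MBP, Sox10 and DAPI and imaged with an Operetta system. MBP+ oligodendrocyte number and total cell number were expressed as the number of SDs above the mean of the DMSO negative control on the same plate (n=16 control wells per plate). Hits were defined as >=4 SD for oligodendrocytes and >=2 SD for total cells.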
row,Structure (SMILES),MBP+ mature oligodendrocyte number
1,COc1ccc(-c2nc3cc(C4=NNC(=O)CC4C)ccc3[nH]2)cc1 (centres undefined) [Pimobendan],10.6
2,NCC(=O)Nc1ccc(-n2nc(C(F)(F)F)cc2-c2ccc3c(ccc4ccccc43)c2)cc1,< -6.7
3,COc1ccc(-c2cnc3c(-c4cccc5ncccc45)cnn3c2)cc1,-5
4,NS(=O)(=O)c1cc2c(cc1Cl)N=CNS2(=O)=O [Chlorothiazide],1.14 ± 0.11
5,CNS(=O)(=O)Cc1ccc2[nH]cc(CCN(C)C)c2c1 [Sumatriptan Succinate],0.284
6,O=c1c(O)c(-c2ccc(O)c(O)c2)oc2cc(O)ccc12 [Fisetin],-1.95
7,O=C(COc1ccc(Cl)cc1)NC1CCC(NC(=O)COc2ccc(Cl)cc2)CC1 (centres undefined),3.27
8,COc1cc2ncnc(Oc3cccc(NC(=O)Nc4cc(C(C)(C)C(F)(F)F)on4)c3)c2cc1OC,6.63
9,CN[C@H](CC(C)C)C(=O)N[C@H]1C(=O)N[C@@H](CC(N)=O)C(=O)N[C@H]2C(=O)N[C@H]3C(=O)N[C@H](C(=O)N[C@H](C(=O)O)c4cc(O)cc(O)c4-c4cc3ccc4O)[C@H](O)c3ccc(c(Cl)c3)Oc3cc2cc(c3O[C@@H]2O[C@H](CO)[C@@H](O)[C@H](O)[C@H]2O[C@H]2C[C@](C)(N)[C@H](O)[C@H](C)O2)Oc2ccc(cc2Cl)[C@H]1O [Vancomycin hydrochloride from Streptomyces orientalis],0.0744
10,NC(=O)c1ncn([C@@H]2O[C@H](CO)[C@@H](O)[C@H]2O)n1 [Ribavirin],0.766 ± 1.4
11,CCOC(=O)[C@H](CCc1ccccc1)N[C@@H](C)C(=O)N1[C@H](C(=O)O)C[C@@H]2CCC[C@@H]21 [Ramipril],0.883
12,CNC(=O)c1ccc(-c2cnc3ncc(Cc4ccc5ncccc5c4)n3n2)cc1F,-5.21
13,Cc1ccc(S(=O)(=O)n2c(N)nc3ccccc32)cc1 [ML130 (Nodinitib-1)],-0.213
14,"Cn1c(=O)c2[nH]c(C3CCCC3)nc2n(C)c1=O [8-Cyclopentyl-1,3-dimethylxanthine]",0.607
15,CC(C)COCC(CN(Cc1ccccc1)c1ccccc1)N1CCCC1 (centres undefined) [Bepridil hydrochloride],-0.000818
16,O=C(O)c1cc(=O)c2ccccc2o1 [Chromocarb],2.52
17,NS(=O)(=O)c1cc(C(=O)O)c(NCc2ccco2)cc1Cl [Furosemide],1.12 ± 0.43
18,NC(=S)c1ccc[n+]([C@@H]2O[C@@H](COP(=O)([O-])OP(=O)(O)OC[C@H]3O[C@@H](n4cnc5c(N)ncnc54)C(OP(=O)(O)O)[C@H]3O)C(O)C2O)c1 (some centres undefined) [Thio-NADP sodium],-0.461
19,CCOc1cc([C@@H](CS(C)(=O)=O)N2C(=O)c3cccc(NC(C)=O)c3C2=O)ccc1OC,1.77
20,Cc1cc(C2CCCCC2)n(O)c(=O)c1 [Ciclopirox],-4.7
21,Cc1cc(C2CCCCC2)n(O)c(=O)c1 [Ciclopirox ethanolamine],-5.93
22,CC1=C(C(=O)OC(C)C)C(c2cccc([N+](=O)[O-])c2)C(C(=O)OC2CN(C(c3ccccc3)c3ccccc3)C2)=C(N)N1 (centres undefined) [Azelnidipine],< -6.01

row,Structure (SMILES),MBP+ mature oligodendrocyte number
1,COc1cc(C(=O)NS(=O)(=O)c2ccccc2C)ccc1Cc1cn(C)c2ccc(NC(=O)OC3CCCC3)cc12 [Zafirlukast],2.23
2,CCc1cncnc1N1CCN(Cc2nc3ccc(C(F)(F)F)cc3[nH]2)CC1,3.81
3,COc1cccc(OC)c1OCCNCC1COc2ccccc2O1 (centres undefined) [WB-4101 hydrochloride],5.89
4,Nc1ccccc1NC(=O)c1ccc(CNC(=O)OCc2cccnc2)cc1 [Entinostat (MS-275)],< -6.7
5,O=C1NCN(c2ccccc2)C12CCN(CCCC(c1ccc(F)cc1)c1ccc(F)cc1)CC2 [Fluspirilene],-4.41
6,CCCCOc1c(C(=O)c2c(F)cc(C)cc2F)c[nH]c2nncc1-2,-3.08
7,CN(C)C(=O)COC(=O)Cc1ccc(OC(=O)c2ccc(NC(=N)N)cc2)cc1 [Camostat Mesilate],1.93
8,NC(N)=N/N=C/c1ccccc1Cl [Sephin-1],1.29
9,N=C(N)NC(=O)c1nc(Cl)c(N)nc1N [Amiloride HCl],0.703
10,N=C(N)NC(=O)c1nc(Cl)c(N)nc1N [Amiloride hydrochloride],-0.708
11,CC(C)NCC(O)c1ccc(NS(C)(=O)=O)cc1 (racemic) [(±)-Sotalol hydrochloride],-0.0327
12,CC(C)NCC(O)c1ccc(NS(C)(=O)=O)cc1 (racemic) [Sotalol],-0.78
13,O=[N+]([O-])c1ccc2c(c1)S(=O)(=O)C=C2 [Stattic],-5.1 ± 1.8
14,CC[C@H]1OC(=O)[C@H](C)[C@@H](O[C@H]2C[C@@](C)(OC)[C@@H](O)[C@H](C)O2)[C@H](C)[C@@H](O[C@@H]2O[C@H](C)C[C@H](N(C)C)[C@H]2O)[C@](C)(OC)C[C@@H](C)C(=O)[C@H](C)[C@@H](O)[C@]1(C)O [Clarithromycin],-1.12
15,Nc1ccc(-c2ccc3ccccc3n2)cc1 [BF-170 hydrochloride],0.146
16,CC(=O)SCC[N+](C)(C)C [Acetylthiocholine chloride],-0.394
17,NC(=O)Cc1cccc(C(=O)c2ccccc2)c1N [Nepafenac],3.6
18,C[C@H]1COC2=C1C(=O)C(=O)c1c2ccc2c1CCCC2(C)C [Cryptotanshinone],0.787
19,CN(C)CC[C@H](CSc1ccccc1)Nc1ccc(S(=O)(=O)NC(=O)c2ccc(N3CCN(Cc4ccccc4-c4ccc(Cl)cc4)CC3)cc2)cc1[N+](=O)[O-],-6.52
20,O=C(Nc1nc2ccccc2n1CCN1CCOCC1)c1cccc([N+](=O)[O-])c1 [IRAK-1/4 Inhibitor I],-0.0327
21,CCCCC1=NC2(CCCC2)C(=O)N1Cc1ccc(-c2ccccc2-c2nnn[nH]2)cc1 [Irbesartan],1.42
22,C=C1C[C@@]23CC[C@H]4[C@@](C)(CCC[C@@]4(C)C(=O)O[C@@H]4O[C@H](CO)[C@@H](O)[C@H](O)[C@H]4O)[C@@H]2CC[C@]1(O[C@@H]1O[C@H](CO)[C@@H](O)[C@H](O)[C@H]1O[C@@H]1O[C@H](CO)[C@@H](O)[C@H](O)[C@H]1O)C3 [Stevioside],-0.715
